# In publication PMC4336329 (PLoS ONE, 2015):
# The whole screen tested about 310,000 compounds, of which about 2,200 (0.71%) showed an effect of 50% or more. Effects have a minus sign here. Some of the results follow.
# Target: human ether-à-go-go-related gene (hERG) potassium channel (human, UniProt Q12809)
# Test: primary screen, population patch clamp on CHO cells stably expressing hERG
# Chain of human ether-à-go-go-related gene (hERG) potassium channel (Q12809 whole entry, looked up): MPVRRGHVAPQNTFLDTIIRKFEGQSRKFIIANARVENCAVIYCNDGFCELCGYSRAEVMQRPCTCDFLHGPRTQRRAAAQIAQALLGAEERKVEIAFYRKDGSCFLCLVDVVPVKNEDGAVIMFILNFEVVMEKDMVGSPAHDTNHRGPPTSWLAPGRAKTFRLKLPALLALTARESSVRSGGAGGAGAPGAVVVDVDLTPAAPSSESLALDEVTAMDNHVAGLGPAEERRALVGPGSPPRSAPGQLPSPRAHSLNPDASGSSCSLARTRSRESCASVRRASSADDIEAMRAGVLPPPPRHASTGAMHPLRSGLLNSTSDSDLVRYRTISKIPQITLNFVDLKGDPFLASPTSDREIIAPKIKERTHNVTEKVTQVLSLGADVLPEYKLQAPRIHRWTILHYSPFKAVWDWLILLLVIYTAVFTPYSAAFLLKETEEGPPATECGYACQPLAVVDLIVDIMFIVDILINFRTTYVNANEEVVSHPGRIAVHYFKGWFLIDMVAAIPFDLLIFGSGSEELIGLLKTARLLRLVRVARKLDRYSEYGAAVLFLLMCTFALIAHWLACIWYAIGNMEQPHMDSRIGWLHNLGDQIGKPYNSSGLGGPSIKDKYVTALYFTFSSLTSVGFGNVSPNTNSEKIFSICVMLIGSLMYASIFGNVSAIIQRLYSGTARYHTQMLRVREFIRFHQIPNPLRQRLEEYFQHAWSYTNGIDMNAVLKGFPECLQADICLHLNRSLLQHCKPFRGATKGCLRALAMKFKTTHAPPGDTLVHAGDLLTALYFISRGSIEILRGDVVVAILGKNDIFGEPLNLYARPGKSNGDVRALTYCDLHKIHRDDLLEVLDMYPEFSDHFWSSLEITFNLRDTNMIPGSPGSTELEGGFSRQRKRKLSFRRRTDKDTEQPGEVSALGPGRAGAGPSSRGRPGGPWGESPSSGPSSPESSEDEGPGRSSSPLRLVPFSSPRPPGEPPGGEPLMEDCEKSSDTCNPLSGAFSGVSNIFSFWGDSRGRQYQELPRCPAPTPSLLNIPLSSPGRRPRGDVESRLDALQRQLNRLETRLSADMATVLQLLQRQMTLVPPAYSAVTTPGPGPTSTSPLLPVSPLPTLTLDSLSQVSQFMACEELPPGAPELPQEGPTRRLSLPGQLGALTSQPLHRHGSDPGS
row,Compound,"hERG current change (%, negative = inhibition) at 1uM [%]"
1,Cc1ccc(S(=O)(=O)C(C#N)c2nc3ccccc3nc2N2CCCC2)cc1C (centres unmarked),4.09
2,O=C(Nc1ccccc1)Nc1ccc(C(=O)N2CCCC2)cc1,1.79
3,Cc1c(/C=N/O)c2ccccc2n1C,6.72
4,COCCNCCCCSc1ccc(Cl)cc1,-6.69
5,Nc1cc(C(=O)OCC(=O)NCCCc2ccccc2)ccc1Cl,9.94
6,Cc1cccc(C(=O)N[C@H](C(=O)NCCc2ccc(Cl)cc2)C(C)C)c1,11.6
7,COc1ccc(C(=O)N[C@H](C(=O)OCC(=O)NC(=O)c2cccn2C)C(C)C)cc1,4.44
8,C=C(C)CNC(=S)N=Nc1c(O)[nH]c2ccc([N+](=O)[O-])cc12,-0.518
9,COc1cc(/C=N/Nc2nc(Nc3ccccc3)nc(N3CCCCC3)n2)ccc1OCC(=O)O,9.39
10,Cn1nccc1NC(=O)Nc1ccccc1,15.2
11,Cc1cc(Cn2nnnc2-c2ccncc2)cc(C)c1O,8.26
12,COc1ccc(-c2csc(/C(C#N)=C\c3ccc(OC)c([N+](=O)[O-])c3)n2)cc1,-1.51
13,COc1cccc(NC(=O)CCCn2c(=S)[nH]c3ccccc3c2=O)c1,11.1
14,COc1cc(C=O)ccc1OCc1ccncc1,15.6
15,O=C(CN1C(=O)c2cccc3cccc1c23)Nc1ccc2c(c1)OCO2,17.3
16,CCOC(=O)c1c(C)[nH]c(C(=O)CSc2nnnn2-c2ccc(C)cc2)c1C,0.0761
17,COc1ccc(C(=O)NC(Cn2ccnc2)C(C)(C)C)cc1OC1CCN(C(C)C)CC1 (centres unmarked),-12.8
18,COc1ccc(NC(=O)CCNC(=O)c2ccco2)cc1OC,13.7
19,O=C(Nc1ccc2c(c1)oc1ccccc12)C1CC1,17.6
20,CCCOc1ccccc1OCC(=O)Nc1ccc(S(=O)(=O)N2CCCC2)cc1,6.02
21,CC(=O)N1CCN(C(=O)c2cccc(S(=O)(=O)Nc3ccc(C)cc3)c2)CC1,20.9
22,CSc1nc2c(C)c(C)c(C)c(C)c2[nH]1,6.55

row,Compound,"hERG current change (%, negative = inhibition) at 1uM [%]"
1,Cn1c(=O)c2cn(-c3ccc4c(c3)OCCO4)cc2n(C)c1=O,13.7
2,CCOC(=O)C1=C(C)NC(=O)C(C(N)=O)C12CCCC2 (centres unmarked),19.6
3,CNC(=O)N(O)C1N(/N=C/c2cc(Br)ccc2O)C(=S)SC1(C)C (centres unmarked),8.79
4,N#CCC(=O)Nc1ccc(C(=O)OCC(=O)NNC(=O)c2ccc(Cl)cc2)cc1,8.22
5,COc1ccc(CNC(=O)Cc2nn(C)c(=O)c3ccccc23)cc1,-0.0936
6,Cc1cc(C)c(S(=O)(=O)N2CC=C(c3ccccc3)CC2)c(C)c1,10.5
7,COc1ccc(C(=O)N2CCN(Cc3nc(CC4CC4)no3)CC2)cc1,1.81
8,CNC(=O)C1CC(=O)N(CCc2ccc(OC)c(OC)c2)C(=Nc2ccc(F)cc2)S1 (centres unmarked),-3.69
9,O=C(/C=C/c1ccc(OC(F)F)cc1)Nc1cccc(S(=O)(=O)NC2=NCCCCC2)c1,-2.86
10,Cc1cc(C)cc(NC(=O)CN2CCC(C(=O)c3ccccc3)CC2)c1,5.83
11,C=CCn1c(CCc2ccccc2)nnc1SCC(=O)OC,9.59
12,COc1ccc(-c2[nH]c(-c3ccc(F)cc3)nc2SCC(=O)NC2CCCC2)cc1,8.28
13,CCOC(=O)N1CCN(C(=O)COc2ccccc2OC)CC1,12.9
14,CC(=O)C1=C(C)NC(SCC(=O)c2ccccc2)=C(C#N)C1c1ccco1 (centres unmarked),9.18
15,Cc1cccc(C)c1N1C(=O)C2ON(c3ccccc3)C(c3ccncc3)C2C1=O (centres unmarked),-1.05
16,CCOc1ccc(NC(=O)c2ccc(CNc3c(NC4CCCCC4)c(=O)c3=O)cc2)cc1,9.01
17,Cc1ccc(S(=O)(=O)Nc2ccccc2C(O)c2ccccc2)cc1 (centres unmarked),15
18,CCC(=O)c1ccc(N2CCN(C(=O)c3ccccc3F)CC2)c(F)c1,4.36
19,COc1ccc(NC(=O)CCS(=O)(=O)c2ccc3c(c2)NC(=O)C(C)S3)cc1OC (centres unmarked),18.7
20,Cc1ccc(-c2csc3nc[nH]c(=O)c23)c(C)c1,2.26
21,O=C(O)c1ccc(-n2cc(C(=O)c3ccccc3O)cn2)cc1,12.7
22,Cc1ccc(-c2cc(C(=O)N(C)Cc3cnn(C)c3C)c3cc(Br)ccc3n2)cc1,-2.42
